According to US20240262848A1, “HETEROCYCLIC COMPOUNDS, COMPOSITIONS THEREOF, AND METHODS OF TREATMENT THEREWITH” (BeiGene, Ltd., priority 2022, published 2024):
pIC50: −log10 of the molar value.

target: GST-tagged GDP-loaded WT KRAS (amino acids 1-169) (Homo sapiens, UniProt P01116); assay: KRAS WT probe displacement assay (run with the KRAS G12V assay, TR-FRET); format: binding; details: Table 4; WT KRAS 3 nM, biotinylated probe 1 60 nM

Point of comparison: `CN1CC2(COC2)COc2nc(-c3cc(N)cc(Cl)c3C(F)(F)F)c(F)c3nc(OC[C@@]45CCCN4C[C@H](F)C5)nc1c23` [Example 11, 3-chloro-5-(4-fluoro-2-(((2R,7aS)-2-fluorotetrahydro-1H-pyrrolizin-7a(5H)-yl)methoxy)-11-methyl-10,11-dihydro-8H-7-oxa-1,3,6,11-tetraazaspiro[cycloocta[de]naphthalene-9,3′-oxetan]-1(11a), 2,3a, 3 al(6a), 5-pentaen-5-yl)-4-(trifluoromethyl)aniline], pIC50 7.80. Against it:
- C[C@@H]1CCOc2nc(-c3cc(N)cc(Cl)c3C(F)(F)F)c(F)c3nc(OC[C@@]45CCCN4C[C@H](F)C5)nc(c23)N1C [Example 26, 3-chloro-5-((R)-4-fluoro-2-(((2R,7aS)-2-fluorotetrahydro-1H-pyrrolizin-7a(5H)-yl)methoxy)-10,11-dimethyl-8,9,10,11-tetrahydro-7-oxa-1,3,6,11-tetraazacycloocta[de]naphthalen-5-yl)-4-(trifluoromethyl)aniline] — 1.09 log units higher, 8.89
- CN1c2nc(OCC3(C)CCC4COCCN4C3)nc3c(F)c(-c4cc(N)cc(Cl)c4C(F)(F)F)nc(c23)O[C@H]2COCC[C@@H]21 (stereo partly drawn) [Example 60, 3-chloro-5-((7aR,11aS)-4-fluoro-12-methyl-2-((7-methyloctahydropyrido[2,1-c][1,4]oxazin-7-yl)methoxy)-7a, 8,10,11,11a, 12-hexahydro-7,9-dioxa-1,3,6,12-tetraazapleiaden-5-yl)-4-(trifluoromethyl)aniline] — 1.00 log units higher, 8.80
- Nc1cc(Cl)c(C(F)(F)F)c(-c2nc3c4c(nc(OC[C@@]56CCCN5C[C@H](F)C6)nc4c2F)N(C2CC2)CCO3)c1 [Example 8, 3-chloro-5-(10-cyclopropyl-4-fluoro-2-(((2R,7aS)-2-fluorotetrahydro-1H-pyrrolizin-7a(5H)-yl)methoxy)-9,10-dihydro-8H-7-oxa-1,3,6,10-tetraazacyclohepta[de]naphthalen-5-yl)-4-(trifluoromethyl)aniline] — the same, 7.80
- CN1CCOC(C)(COc2nc3c4c(nc(-c5cc(N)cc(Cl)c5C(F)(F)F)c(F)c4n2)O[C@H]2COCC[C@@H]2N3C)C1 (stereo partly drawn) [Example 63, 3-chloro-5-((7aR,11aS)-2-((2,4-dimethylmorpholin-2-yl)methoxy)-4-fluoro-12-methyl-7a, 8,10,11,11a, 12-hexahydro-7,9-dioxa-1,3,6,12-tetraazapleiaden-5-yl)-4-(trifluoromethyl)aniline] — 0.77 log units higher, 8.57
- CC1CN(C)c2nc(OC[C@@]34CCCN3C[C@H](F)C4)nc3c(F)c(-c4cc(N)cc(Cl)c4C(F)(F)F)nc(c23)O1 (stereo partly drawn) [Example 12, 3-chloro-5-(4-fluoro-2-(((2R,7aS)-2-fluorotetrahydro-1H-pyrrolizin-7a(5H)-yl)methoxy)-8,10-dimethyl-9,10-dihydro-8H-7-oxa-1,3,6,10-tetraazacyclohepta[de]naphthalen-5-yl)-4-(trifluoromethyl)aniline] — 0.58 log units higher, 8.38
- CN1c2nc(OC[C@@]34CCCN3C[C@H](F)C4)nc3c(F)c(-c4ccc(F)c5sc(N)c(C#N)c45)c(Cl)c(c23)OCC12COC2 [Example 18, 2-amino-4-(8′-chloro-10′-fluoro-2′-(((2R,7aS)-2-fluorotetrahydro-1H-pyrrolizin-7a(5H)-yl)methoxy)-4′-methyl-4′H, 6′H-spiro[oxetane-3,5′-[1,4]oxazepino[5,6,7-de]quinazolin]-9′-yl)-7-fluorobenzo[b]thiophene-3-carbonitrile] — 1.09 log units higher, 8.89
- CN1c2nc(OC[C@@]34CCCN3C[C@H](F)C4)nc3c(F)c(-c4cc(N)cc(Cl)c4C(F)(F)F)nc(c23)OC2CCCC21 (stereo partly drawn) [Example 45, 3-chloro-5-((7a, 10a-trans)-4-fluoro-2-(((2R,7aS)-2-fluorotetrahydro-1H-pyrrolizin-7a(5H)-yl)methoxy)-11-methyl-7a, 8,9,10,10a, 11-hexahydro-7-oxa-1,3,6,11-tetraazanaphtho[1,8-fg]azulen-5-yl)-4-(trifluoromethyl)aniline] — 0.54 log units higher, 8.34
- C#Cc1c(F)ccc2cc(O)cc(-c3nc4c5c(nc(OC[C@@]67CCCN6C[C@H](F)C7)nc5c3F)N(C3CC3)CCCO4)c12 [Example 5, 4-(11-cyclopropyl-4-fluoro-2-(((2R,7aS)-2-fluorotetrahydro-1H-pyrrolizin-7a(5H)-yl)methoxy)-8,9,10,11-tetrahydro-7-oxa-1,3,6,11-tetraazacycloocta[de]naphthalen-5-yl)-5-ethynyl-6-fluoronaphthalen-2-ol] — 1.09 log units higher, 8.89
- CN1c2nc(OC[C@@]34CCCN3C[C@H](F)C4)nc3c(F)c(-c4cc(N)cc(Cl)c4C(F)(F)F)nc(c23)OC[C@H]2COC[C@@H]21 (single isomer, unassigned) [Example 68 Isomer 1] — 1.23 log units higher, 9.03
- CN1c2nc(OC[C@@]34CCCN3C[C@H](F)C4)nc3c(F)c(-c4cc(N)cc(Cl)c4C(F)(F)F)nc(c23)OCC12CC2 [Example 29, 3-chloro-5-(4-fluoro-2-(((2R,7aS)-2-fluorotetrahydro-1H-pyrrolizin-7a(5H)-yl)methoxy)-10-methyl-8H, 10H-7-oxa-1,3,6,10-tetraazaspiro[cyclohepta[de]naphthalene-9,1′-cyclopropan]-1(10a), 2,3a, 3 al(6a), 5-pentaen-5-yl)-4-(trifluoromethyl)aniline] — 0.97 log units higher, 8.77
- CN1c2nc(OC[C@@]34CCCN3C[C@H](F)C4)nc3c(F)c(-c4cc(N)c(F)c(Cl)c4C(F)(F)F)nc(c23)O[C@H]2COCC[C@@H]21 [Example 66, 3-chloro-2-fluoro-5-((7aR,11aS)-4-fluoro-2-(((2R,7aS)-2-fluorotetrahydro-1H-pyrrolizin-7a(5H)-yl)methoxy)-12-methyl-7a, 8,10,11,11a, 12-hexahydro-7,9-dioxa-1,3,6,12-tetraazapleiaden-5-yl)-4-(trifluoromethyl)aniline] — 1.44 log units higher, 9.24
- CCN1c2nc(OC[C@@]34CCCN3C[C@H](F)C4)nc3c(F)c(-c4cc(N)cc(Cl)c4C(F)(F)F)nc(c23)O[C@H]2COCC[C@@H]21 [Example 58, 3-chloro-5-((7aR,11aS)-12-ethyl-4-fluoro-2-(((2R,7aS)-2-fluorotetrahydro-1H-pyrrolizin-7a(5H)-yl)methoxy)-7a, 8,10,11,11a, 12-hexahydro-7,9-dioxa-1,3,6,12-tetraazaplciaden-5-yl)-4-(trifluoromethyl)aniline] — 1.40 log units higher, 9.20
- CN1c2nc(OC[C@@]34CCCN3C[C@H](F)C4)nc3c(F)c(-c4cc(N)cc(Cl)c4C(F)(F)F)nc(c23)OCC12COC2 [Example 23, 3-chloro-5-(4-fluoro-2-(((2R,7aS)-2-fluorotetrahydro-1H-pyrrolizin-7a(5H)-yl)methoxy)-10-methyl-8H, 10H-7-oxa-1,3,6,10-tetraazaspiro[cyclohepta[de]naphthalene-9,3′-oxetan]-1(10a), 2,3a, 3a^1(6a), 5-pentaen-5-yl)-4-(trifluoromethyl)aniline] — within 0.2 log units, 7.74
- Cc1c(F)c(N)cc(-c2nc3c4c(nc(OC[C@@]56CCCN5C[C@H](F)C6)nc4c2F)N(C)[C@H]2CCOC[C@@H]2O3)c1C(F)(F)F [Example 67, 2-fluoro-5-((7aR,11aS)-4-fluoro-2-(((2R,7aS)-2-fluorotetrahydro-1H-pyrrolizin-7a(5H)-yl)methoxy)-12-methyl-7a, 8,10,11,11a, 12-hexahydro-7,9-dioxa-1,3,6,12-tetraazapleiaden-5-yl)-3-methyl-4-(trifluoromethyl)aniline] — 1.26 log units higher, 9.06
